# Some of the results follow.
# B1: MAL-II (Maackia amurensis), P93248 (protein)
# chain: ATSNSKPTQVLLATFLTFFFLLLNNVNSSDELSFTINNFVPNEADLLFQGEASVSSTGVLQLTRVENGQPQQYSVGRALYAAPVRIWDNTTGSVASFSTSFTFVVKAPNPTITSDGLAFFLAPPDSQIPSGRVSKYLGLFNNSNSDSSNQIVAVEFDTYFGHSYDPWDPNYRHIGIDVNGIESIKTVQWDWINGGVAFATITYLAPNKTLIASLVYPSNQTSFIVAASVDLKEILPEWVRVGFSAATGYPTQVETHDVLSWSFTSTLEANSDAATENNVHIARYTA
# Tests used:
# Experiment in all cases: glycan array binding signal (z-score within array); higher = stronger binding
# Conditions in all cases: glycan notation: IUPAC condensed, linker removed
# [1] = biological target: Neu5Ac(a2-3)Gal(b1-3)GlcNAc(b1-4)Gal(b1-4)Glc
# Summary of the method: (§1)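 Glycan array binding is given as a within-array Z-score, which can be read as non-binding when negative. The arrays, 3228 of them, came from the Consortium for Functional Glycomics database and were retained only where the protein sequence was available. Z-scores were averaged across arrays of the same protein sequence at different concentrations or buffers and across linkers.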
# [2] = biological target: Neu5Ac(a2-3)Gal(b1-3)GlcNAc(b1-6)GalNAc
# Summary of the method: as §1
# [3] = biological target: Neu5Ac(a2-3)Gal(b1-3)GlcNAc6S
# Summary of the method: as §1
# [4] = biological target: Neu5Ac(a2-3)Gal(b1-3)[Fuc(a1-4)]GlcNAc
# Summary of the method: as §1
# [5] = biological target: Neu5Ac(a2-3)Gal(b1-3)[Fuc(a1-4)]GlcNAc(b1-3)Gal(b1-3)[Fuc(a1-4)]GlcNAc
# Summary of the method: as §1
# [6] = biological target: Neu5Ac(a2-3)Gal(b1-3)[Fuc(a1-4)]GlcNAc(b1-3)Gal(b1-4)[Fuc(a1-3)]GlcNAc
# Summary of the method: as §1
# [7] = biological target: Neu5Ac(a2-3)Gal(b1-3)[GlcNAc(b1-6)]GalNAc
# Summary of the method: as §1
# [8] = biological target: Neu5Ac(a2-3)Gal(b1-3)[Neu5Ac(a2-3)Gal(b1-4)]GlcNAc
# Summary of the method: as §1
# [9] = biological target: Neu5Ac(a2-3)Gal(b1-3)[Neu5Ac(a2-6)]GalNAc
# Summary of the method: as §1
# [10] = biological target: Neu5Ac(a2-3)Gal(b1-3)[Neu5Ac(a2-6)]GlcNAc(b1-3)[Fuc(a1-3)[Gal(b1-4)]GlcNAc(b1-6)]Gal(b1-4)Glc
# Summary of the method: as §1
# [11] = biological target: Neu5Ac(a2-3)Gal(b1-3)]Neu5Ac(a2-3)Gal(b1-4)]GlcNAc
# Summary of the method: as §1
# Neu5Ac(a2-3)Gal(b1-4)Glc = biological target: Neu5Ac(a2-3)Gal(b1-4)Glc
# Summary of the method: as §1
# [12] = biological target: Neu5Ac(a2-3)Gal(b1-4)GlcNAc
# Summary of the method: as §1
# [13] = biological target: Neu5Ac(a2-3)Gal(b1-4)GlcNAc(b1-2)Man
# Summary of the method: as §1
# [14] = biological target: Neu5Ac(a2-3)Gal(b1-4)GlcNAc(b1-2)Man(a1-3)[GlcNAc(b1-2)Man(b1-4)GlcNAc(b1-2)Man(a1-6)]Man(b1-4)GlcNAc(b1-4)GlcNAc
# Summary of the method: as §1
# [15] = biological target: Neu5Ac(a2-3)Gal(b1-4)GlcNAc(b1-2)Man(a1-3)[GlcNAc(b1-4)][Neu5Ac(a2-3)Gal(b1-4)GlcNAc(b1-2)Man(a1-6)]Man(b1-4)GlcNAc(b1-4)GlcNAc
# Summary of the method: as §1
# [16] = biological target: Neu5Ac(a2-3)Gal(b1-4)GlcNAc(b1-2)Man(a1-3)[Neu5Ac(a2-3)Gal(b1-4)GlcNAc(b1-2)Man(a1-6)]Man(b1-4)GlcNAc(b1-4)GlcNAc
# Summary of the method: as §1
# [17] = biological target: Neu5Ac(a2-3)Gal(b1-4)GlcNAc(b1-2)Man(a1-3)[Neu5Ac(a2-3)Gal(b1-4)GlcNAc(b1-2)Man(a1-6)]Man(b1-4)GlcNAc(b1-4)[Fuc(a1-6)]GlcNAc
# Summary of the method: as §1
# [18] = biological target: Neu5Ac(a2-3)Gal(b1-4)GlcNAc(b1-2)Man(a1-3)[Neu5Ac(a2-6)Gal(b1-4)GlcNAc(b1-2)Man(a1-6)]Man(b1-4)GlcNAc(b1-4)GlcNAc
# Summary of the method: as §1
# [19] = biological target: Neu5Ac(a2-3)Gal(b1-4)GlcNAc(b1-2)[Neu5Ac(a2-3)Gal(b1-4)GlcNAc(b1-4)]Man(a1-3)[GlcNAc(b1-4)][Neu5Ac(a2-3)Gal(b1-4)GlcNAc(b1-2)[Neu5Ac(a2-3)Gal(b1-4)GlcNAc(b1-6)]Man(a1-6)]Man(b1-4)GlcNAc(b1-4)GlcNAc
# Summary of the method: as §1
# [20] = biological target: Neu5Ac(a2-3)Gal(b1-4)GlcNAc(b1-2)[Neu5Ac(a2-3)Gal(b1-4)GlcNAc(b1-4)]Man(a1-3)[GlcNAc(b1-4)][Neu5Ac(a2-3)Gal(b1-4)GlcNAc(b1-4)Man(a1-6)]Man(b1-4)GlcNAc(b1-4)GlcNAc
# Summary of the method: as §1
# [21] = biological target: Neu5Ac(a2-3)Gal(b1-4)GlcNAc(b1-2)[Neu5Ac(a2-3)Gal(b1-4)GlcNAc(b1-6)]Man(a1-6)[Neu5Ac(a2-3)Gal(b1-4)GlcNAc(b1-2)Man(a1-3)]Man(b1-4)GlcNAc(b1-4)GlcNAc
# Summary of the method: as §1
# [22] = biological target: Neu5Ac(a2-3)Gal(b1-4)GlcNAc(b1-2)[Neu5Ac(a2-3)Gal(b1-4)GlcNAc(b1-6)]Man(a1-6)[Neu5Ac(a2-3)Gal(b1-4)GlcNAc(b1-2)Man(a1-3)][GlcNAc(b1-4)]Man(b1-4)GlcNAc(b1-4)GlcNAc
# Summary of the method: as §1
# [23] = biological target: Neu5Ac(a2-3)Gal(b1-4)GlcNAc(b1-3)Gal
# Summary of the method: as §1
# [24] = biological target: Neu5Ac(a2-3)Gal(b1-4)GlcNAc(b1-3)Gal(b1-3)GlcNAc
# Summary of the method: as §1
# [25] = biological target: Neu5Ac(a2-3)Gal(b1-4)GlcNAc(b1-3)Gal(b1-4)GlcNAc
# Summary of the method: as §1
# [26] = biological target: Neu5Ac(a2-3)Gal(b1-4)GlcNAc(b1-3)Gal(b1-4)GlcNAc(b1-2)Man(a1-3)[Neu5Ac(a2-3)Gal(b1-4)GlcNAc(b1-3)Gal(b1-4)GlcNAc(b1-2)Man(a1-6)]Man(b1-4)GlcNAc(b1-4)GlcNAc
# Summary of the method: as §1
# [27] = biological target: Neu5Ac(a2-3)Gal(b1-4)GlcNAc(b1-3)Gal(b1-4)GlcNAc(b1-3)Gal(b1-4)GlcNAc
# Summary of the method: as §1
# [28] = biological target: Neu5Ac(a2-3)Gal(b1-4)GlcNAc(b1-3)Gal(b1-4)GlcNAc(b1-3)Gal(b1-4)GlcNAc(b1-2)Man(a1-3)[Neu5Ac(a2-3)Gal(b1-4)GlcNAc(b1-3)Gal(b1-4)GlcNAc(b1-3)Gal(b1-4)GlcNAc(b1-2)Man(a1-6)]GalNAc
# Summary of the method: as §1
# [29] = biological target: Neu5Ac(a2-3)Gal(b1-4)GlcNAc(b1-3)Gal(b1-4)GlcNAc(b1-3)GalNAc
# Summary of the method: as §1
# [30] = biological target: Neu5Ac(a2-3)Gal(b1-4)GlcNAc(b1-3)Gal(b1-4)GlcNAc(b1-3)[Neu5Ac(a2-3)Gal(b1-4)GlcNAc(b1-3)Gal(b1-4)GlcNAc(b1-6)]GalNAc
# Summary of the method: as §1
# [31] = biological target: Neu5Ac(a2-3)Gal(b1-4)GlcNAc(b1-3)Gal(b1-4)GlcNAc(b1-6)[Gal(b1-3)]GalNAc
# Summary of the method: as §1
# [32] = biological target: Neu5Ac(a2-3)Gal(b1-4)GlcNAc(b1-3)Gal(b1-4)[Fuc(a1-3)]GlcNAc
# Summary of the method: as §1
# [33] = biological target: Neu5Ac(a2-3)Gal(b1-4)GlcNAc(b1-3)GalNAc
# Summary of the method: as §1
# [34] = biological target: Neu5Ac(a2-3)Gal(b1-4)GlcNAc(b1-3)[Neu5Ac(a2-3)Gal(b1-4)GlcNAc(b1-6)]GalNAc
# Summary of the method: as §1
# [35] = biological target: Neu5Ac(a2-3)Gal(b1-4)GlcNAc(b1-6)GalNAc
# Summary of the method: as §1
# [36] = biological target: Neu5Ac(a2-3)Gal(b1-4)GlcNAc(b1-6)[Gal(b1-3)]GalNAc
# Summary of the method: as §1
binder,measurement,setting,value
B1,glycan array binding signal (z-score),[1],-0.215
same,glycan array binding signal (z-score),[2],-0.245
same,glycan array binding signal (z-score),[3],-0.11
same,glycan array binding signal (z-score),[4],-0.196
same,glycan array binding signal (z-score),[5],-0.191
same,glycan array binding signal (z-score),[6],-0.221
same,glycan array binding signal (z-score),[7],3.23
same,glycan array binding signal (z-score),[8],-0.241
same,glycan array binding signal (z-score),[9],7.48
same,glycan array binding signal (z-score),[10],-0.18
same,glycan array binding signal (z-score),[11],-0.202
same,glycan array binding signal (z-score),Neu5Ac(a2-3)Gal(b1-4)Glc,-0.167
same,glycan array binding signal (z-score),[12],-0.137
same,glycan array binding signal (z-score),[13],-0.06
same,glycan array binding signal (z-score),[14],-0.099
same,glycan array binding signal (z-score),[15],-0.389
same,glycan array binding signal (z-score),[16],-0.229
same,glycan array binding signal (z-score),[17],-0.268
same,glycan array binding signal (z-score),[18],-0.24
same,glycan array binding signal (z-score),[19],-0.279
same,glycan array binding signal (z-score),[20],-0.282
same,glycan array binding signal (z-score),[21],-0.087
same,glycan array binding signal (z-score),[22],-0.334
same,glycan array binding signal (z-score),[23],-0.196
same,glycan array binding signal (z-score),[24],-0.166
same,glycan array binding signal (z-score),[25],-0.096
same,glycan array binding signal (z-score),[26],0.685
same,glycan array binding signal (z-score),[27],0.001
same,glycan array binding signal (z-score),[28],0.4
same,glycan array binding signal (z-score),[29],-0.108
same,glycan array binding signal (z-score),[30],-0.118
same,glycan array binding signal (z-score),[31],0.212
same,glycan array binding signal (z-score),[32],-0.221
same,glycan array binding signal (z-score),[33],-0.131
same,glycan array binding signal (z-score),[34],-0.187
same,glycan array binding signal (z-score),[35],-0.212
same,glycan array binding signal (z-score),[36],-0.208
